Here are results for 24 compounds from PubChem BioAssay AID1745853 (National Center for Advancing Translational Sciences (NCATS), 2022).

Where “and” joins values, the source holds several entries; their conditions need not be identical. Equal entries are not always repeated. This is one part of the list. These are further read-outs of the screen, such as a control signal, another cell line or another target. No call is given for them.

Assay in all cases: Primary Screen for Target Class Profiling of Small Molecule Inhibitors of Methyltransferases
Assay [1] addresses Glycine N-methyltransferase (Homo sapiens) (UniProt Q14749). Particulars: purified enzyme, MTase-Glo SAH luminescence; measured here: GNMT inhibition; at 40 µM; stronger effect = lower value. A digest of the protocol:
(§1)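 Each enzyme was reacted with SAM and its substrate, with compounds tested once at 40 uM; SAH formed was read by MTase-Glo luminescence.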

For assay [2], the target named is Guanidinoacetate N-methyltransferase (Homo sapiens) (UniProt Q14353). As to conditions: purified enzyme, MTase-Glo SAH luminescence; measured here: GAMT inhibition; at 40 µM; stronger effect = lower value. A digest of the protocol:
as §1

Assay [3] concerns the target Histamine N-methyltransferase (Homo sapiens) (UniProt P50135). As to conditions: purified enzyme, MTase-Glo SAH luminescence; measured here: HNMT inhibition; at 40 µM; stronger effect = lower value. The essentials: as §1
In assay [4] the target is Nicotinamide N-methyltransferase (Homo sapiens) (UniProt P40261). Particulars: purified enzyme, MTase-Glo SAH luminescence; measured here: NNMT inhibition; at 40 µM; stronger effect = lower value. A digest of the protocol: as §1
Assay [5] concerns the target Phenylethanolamine N-methyltransferase (Homo sapiens) (UniProt P11086). Particulars: purified enzyme, MTase-Glo SAH luminescence; measured here: PNMT inhibition; at 40 µM; stronger effect = lower value. A digest of the protocol:
as §1
On the % scale 0 is the no-effect control and ±100 the full control effect.

Regarding `Cc1onc(C(=O)N2CCN(C(c3ccc(Cl)cc3)c3ccc(Cl)cc3)CC2)c1[N+](=O)[O-]`, the activity change, negative = inhibition was -4.12% in assay [1]; -36.7% in assay [2]; -1.92% in assay [3]; -38.3% in assay [4]; -17.3% in assay [5].
For `COc1ccc(CNC(=O)C2(C)Cn3cnc(C(=O)NCCc4ccc(C)cc4)c3C(=O)N2C2CC2)cc1` (stereo not given), the activity change, negative = inhibition in assay [1] amounted to 3.3%; in assay [2], 3.94%; in assay [3] it was 14.6%; in assay [4] it was 3.92%; in assay [5], 7.93%.
On the same counts, the results for `CCOc1ccc(C(=O)N2CCC(n3cc(-c4nc(CC)no4)nn3)C2)cc1` (stereo not given) are -1.9%, 1.35%, 2.96%, 0.106% and 2.7%.
As for `C=CCn1c(=O)c2ccc(C(=O)NC(C)CC)cc2n2c(=O)n(CC(=O)Nc3cccc(F)c3)nc12` (stereo not given), the activity change, negative = inhibition in assay [1] was 0.872%; in assay [2], 0.272%; in assay [3], 1.3%; in assay [4] it was 1.08%; in assay [5], 2.04%.
On the same counts, the results for `CC(C)Cn1c(=O)c2ccccc2n2c(SCC(=O)Nc3ccc4c(c3)OCO4)nnc12` are -7.74%, 4.6%, 2.86%, -5.64% and 3.38%.
For `CCC(C)N1C(=O)c2ccccc2CC1(C)C(=O)NC1CCCCCCC1` (stereo not given) the same measures were -2.01%, 0.102%, 8.78%, 6.91% and 2.4%.
On the same counts, the results for `CN(C)C/C=C/C(=O)Nc1cccc(C(=O)Nc2ccc(Nc3nccc(-c4cccnc4)n3)cc2)c1` are -92.1%, 16.3%, -70.3%, -3.69% and 2.02%.
`Fc1cccc(-c2nnn3c2nc(NC2CCCCC2)c2ccccc23)c1`: the activity change, negative = inhibition is -6.87% in assay [1]; -0.484% in assay [2]; -9.1% in assay [3]; -15.1% in assay [4]; -15.8% in assay [5].
For `O=[N+]([O-])c1cccc2c(Br)[nH]nc12` the same measures were -61.4%, 6.7%, 10.3%, -22.1% and -20.5%.
As to `CC1(C(=O)NC2CCCCCCC2)Cn2c(ccc2-c2ccco2)C(=O)N1CCc1cccs1` (stereo not given), the activity change, negative = inhibition in assay [1] was -7.12%; in assay [2] it was 4.45%; in assay [3] it was 1.73%; in assay [4], -9.3%; in assay [5], -2.68%.
On to `Cc1ccc(CN2CC(Oc3cccc(C(=O)N4CCOCC4)c3)C2)s1`, for which the activity change, negative = inhibition was -1.03% in assay [1]; 0.89% in assay [2]; -3.63% in assay [3]; -1.57% in assay [4]; 2.04% in assay [5].
For `CCOc1cccc(C2c3cccn3-c3sc4c(c3CN2C(=O)Nc2ccccc2OC)CCCC4)c1` (stereo not given) the same measures were 2.73%, 1.51%, 6.59%, -2.07% and 7.66%.
Consider `NC(N)=N/N=C/c1ccccc1Cl`, for which the activity change, negative = inhibition is -0.236% in assay [1]; -2% in assay [2]; -23.7% in assay [3]; -14.4% in assay [4]; -3.41% in assay [5].
In the case of `O=[N+]([O-])c1ccc(CNc2nc(NCc3cccc(C(F)(F)F)c3)nc3nc[nH]c23)cc1`, the activity change, negative = inhibition in assay [1] was -15.3% and 0.107%; in assay [2] it was 5.29% and 5.59%; in assay [3], -5.64% and -2.9%; in assay [4], -41.6% and -56.6%; in assay [5], -1.21% and -5.37%.
On to `COc1cc(C)c(Sc2cnc(NC(=O)c3ccc(CNC(C)C(C)C)cc3)s2)cc1C(=O)N1CCN(C(C)=O)CC1` (stereo not given), for which the activity change, negative = inhibition in assay [1] is -13.4%; in assay [2], 8.36%; in assay [3], -33%; in assay [4], -13.9%; in assay [5], -5.62%.
For the compound `Cc1ccc(Cn2c(=O)c3ccc(C(=O)NC(C)C)cc3n3c(=O)n(CC(=O)NC4CCCC4)nc23)cc1`, the activity change, negative = inhibition is 1.92% in assay [1]; 0.284% in assay [2]; 2.88% in assay [3]; -2.11% in assay [4]; -1.3% in assay [5].
Regarding `CCCn1c(=O)c2ccc(C(=O)NC(C)CC)cc2n2c(=O)n(CC(=O)NC3CCCC3)nc12` (stereo not given), the activity change, negative = inhibition was -3.43% in assay [1]; 0.911% in assay [2]; -3.11% in assay [3]; -12% in assay [4]; -12.8% in assay [5].
For `Cc1ccc(CN2C(=O)c3cc4oc(C)cc4n3CC2(C)C(=O)NC2CCCCCC2)cc1` (stereo not given) the same measures were -9.52%, 3.86%, -6.84%, -7.63% and -16.2%.
With `Cc1cccc(-c2ncc(CN(CCC(N)=O)Cc3ccccc3)cn2)c1`, the activity change, negative = inhibition is -5.05% in assay [1]; -4.84% in assay [2]; -3.13% in assay [3]; -4.93% in assay [4]; -12.4% in assay [5].
For `COc1cc(CN(CCN)C(=O)c2cccs2)ccc1OCc1ccccc1` the same measures were -10.4%, -4.4%, -19.3%, -15% and -1.14%.
Take `CC(C)Cn1c(=O)c2ccc(C(=O)NC(C)C)cc2n2c(SCC(=O)NC(C)C)nnc12`: the activity change, negative = inhibition in assay [1] is 9.11%; in assay [2], 0.676%; in assay [3], 8.56%; in assay [4], 10.7%; in assay [5], 10.3%.
On the same counts, the results for `C[C@@H]1O[C@@H](O[C@H]2[C@H](OC(=O)[C@]34CCC(C)(C)C[C@H]3C3=CCC5[C@@]6(C)C[C@H](O)[C@H](O[C@@H]7O[C@H](CO[C@@H]8OC[C@H](O)[C@H](O)[C@H]8O)[C@@H](O)[C@H](O)[C@H]7O)C(C)(C)C6CC[C@@]5(C)[C@]3(C)C[C@H]4O)OC[C@@H](O)[C@@H]2O)[C@H](O)[C@H](O[C@@H]2OC[C@](O)(CO)[C@H]2O)[C@H]1O[C@@H]1OC[C@H](O)[C@H](O[C@@H]2OC[C@@H](O)[C@H](O)[C@H]2O)[C@H]1O` (stereo not given in full) are 4.2%, 13.1%, 11.8%, 2.8% and 11.1%.
`CCN(CC)CCN1C(=O)c2ccc(-c3ccco3)n2CC1(C)C(=O)NC1CCCCCC1` (stereo not given): the activity change, negative = inhibition in assay [1] stood at 2.19%; in assay [2] it was 6.76%; in assay [3], 7.37%; in assay [4] it was 7.11%; in assay [5] it was 1.34%.
On the same counts, the results for `COc1ccc(OCC2CN(CC3CC3)[S+](=O)([O-])c3cnccc3O2)cc1` (stereo not given) are -6.25%, -4.44%, -2.04%, -7.95% and -3.19%.
